Experimental data published in PMC4336329 (PLoS ONE, 2015).
Out of some 310,000 compounds screened, about 14,000 (4.5%) showed an effect of 50% or more. Effects have a minus sign here. The list shows a part of the results.

Biological target: human ether-à-go-go-related gene (hERG) potassium channel (human, UniProt Q12809)
Test: primary screen, population patch clamp on CHO cells stably expressing hERG
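Further: peak tail current of the secondary pulse compared with the same well before compound.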

human ether-à-go-go-related gene (hERG) potassium channel, sequence (Q12809 whole entry, looked up): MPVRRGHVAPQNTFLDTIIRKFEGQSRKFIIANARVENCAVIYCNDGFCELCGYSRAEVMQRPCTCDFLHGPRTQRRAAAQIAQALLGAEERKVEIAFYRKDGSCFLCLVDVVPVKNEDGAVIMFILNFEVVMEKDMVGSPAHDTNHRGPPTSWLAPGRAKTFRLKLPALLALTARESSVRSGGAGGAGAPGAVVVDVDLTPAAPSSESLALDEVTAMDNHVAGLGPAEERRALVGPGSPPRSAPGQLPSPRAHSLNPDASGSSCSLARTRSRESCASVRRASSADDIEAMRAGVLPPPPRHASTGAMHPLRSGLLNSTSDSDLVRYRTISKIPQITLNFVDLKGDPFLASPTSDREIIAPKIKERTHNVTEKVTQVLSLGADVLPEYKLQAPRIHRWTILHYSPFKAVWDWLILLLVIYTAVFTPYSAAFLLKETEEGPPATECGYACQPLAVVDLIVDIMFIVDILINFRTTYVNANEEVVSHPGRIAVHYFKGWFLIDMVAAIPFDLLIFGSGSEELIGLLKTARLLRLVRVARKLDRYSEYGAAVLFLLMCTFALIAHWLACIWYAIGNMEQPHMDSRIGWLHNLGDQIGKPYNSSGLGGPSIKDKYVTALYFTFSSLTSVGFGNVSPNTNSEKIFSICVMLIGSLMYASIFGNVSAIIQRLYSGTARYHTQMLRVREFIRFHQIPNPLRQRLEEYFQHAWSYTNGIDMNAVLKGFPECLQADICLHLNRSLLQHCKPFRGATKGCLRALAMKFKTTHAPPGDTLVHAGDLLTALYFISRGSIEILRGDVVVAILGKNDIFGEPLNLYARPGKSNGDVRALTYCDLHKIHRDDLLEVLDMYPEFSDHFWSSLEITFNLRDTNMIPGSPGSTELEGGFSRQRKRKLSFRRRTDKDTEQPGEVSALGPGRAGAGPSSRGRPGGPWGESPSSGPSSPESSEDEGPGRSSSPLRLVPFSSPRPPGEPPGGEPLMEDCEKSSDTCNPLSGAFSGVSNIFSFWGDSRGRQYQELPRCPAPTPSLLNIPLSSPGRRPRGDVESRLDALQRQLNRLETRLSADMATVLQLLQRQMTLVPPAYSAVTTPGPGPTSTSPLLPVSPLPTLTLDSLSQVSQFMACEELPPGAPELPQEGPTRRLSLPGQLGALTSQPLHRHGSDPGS

SMILES | hERG current change (%, negative = inhibition) at 10uM
CCOc1ccc(C2=CC(c3ccccc3)n3ncnc3N2)cc1 (centres unmarked) | -19.7%
CCC(CC)C(=O)N1CCCC(c2nc(-c3cccs3)no2)C1 (centres unmarked) | 4.03%
O=C(O)/C=C/c1ccc(S(=O)(=O)NCc2cccnc2)cc1 | 6.16%
C/C(=N\NC(=S)Nc1cccc(C)c1)c1cc2ccccc2o1 | 7.96%
COC(=O)c1cccc(N(CC(=O)NC2CCCC2)C(=O)CCC(=O)Nc2cc(C)on2)c1 | 17%
COc1ccc(S(=O)(=O)NC(N)=NCCc2ccc(OC)c(OC)c2)cc1C | 4.3%
CC1CC1C(=O)N(C)CC(=O)Nc1ccc(Cl)c(C(F)(F)F)c1 (centres unmarked) | -5.04%
O=S(=O)(/N=C(\c1ccccc1)N1CCOCC1)c1ccc(Cl)cc1 | -5.09%
O=C(CSc1ncn[nH]1)NCCOc1ccccc1 | 18.1%
CCOc1ccc(NC(=O)CNC(=O)c2ccc(OC)c(OC)c2)cc1 | 0.00778%
COc1ccc(CCNC(=O)c2[nH]c(C)c(C(C)=O)c2C)cc1 | -8.42%
Clc1ccc(CSc2nnc(CN3CCOCC3)n2-c2ccccc2)cc1Cl | -74.1%
O=C(N/N=C/c1ccccc1O)NC12CC3CC(CC(C3)C1)C2 | 3.92%
CC(C)(C)c1csc(NC(=O)c2cccnc2Cl)n1 | -36.2%
O=C(C1CCCC1)N1CCC(CO)(Cc2ccccc2Cl)CC1 | -44.3%
O=C(Oc1ccc(/C=N/Nc2nc(N3CCCCC3)nc(N3CCCCC3)n2)cc1)c1ccco1 | -9.1%
CCC(=NC)C1=C(O)CC(c2ccccc2)CC1=O (centres unmarked) | 23.8%
Cc1ccc(C(=O)N/N=C\C=C\c2ccc(Br)cc2)cn1 | -44.3%
O=C(O)C1OC(Oc2cc3oc(-c4ccccc4)cc(=O)c3c(O)c2O)C(O)C(O)C1O (centres unmarked) | 14.3%
CC(C)c1ccc(NC(=O)NC2CC3CCC(C2)N3Cc2cccs2)cc1 (centres unmarked) | -11.3%
Nc1cc(N)nc(SCc2cccc(F)c2)n1 | 8.68%
CSc1ccc(/C=C(\NC(=O)c2ccc(C)cc2)C(=O)NN)cc1 | -10.9%

SMILES | hERG current change (%, negative = inhibition) at 10uM
CC(C)C(NC(=O)c1ccccc1)C(=O)NCCc1ccccc1 (centres unmarked) | 9.77%
Nc1ccnn1-c1ccccc1 | 16.2%
COc1ccccc1/C=C/C(=O)OCC(=O)c1cc(C)n(C)c1C | -0.348%
COCc1cc(CN2CCN(Cc3ccsc3)C(CCO)C2)ccc1OC (centres unmarked) | -82.9%
Cc1ccc(-c2[nH]nc3c2C(c2ccccc2OC(=O)N2CCOCC2)C(C#N)=C(N)O3)cc1 (centres unmarked) | -6.33%
CSCCC(NC(=O)c1cccc(C)c1)C(=O)OCC(=O)Nc1c(C)nn(-c2ccccc2)c1C (centres unmarked) | -15.5%
CCOC(=O)c1ccc(NC(=O)c2nc[nH]c2C(=O)N2CCN(c3ccccc3)CC2)cc1 | 3.29%
COc1ccc(S(=O)(=O)NCc2cccnc2)cc1OC | 17.1%
NS(=O)(=O)c1ccc(CCNC(=O)c2ccccc2F)cc1 | -2.22%
O=[N+]([O-])c1ccc(-c2nc(Nc3cccc(O)c3)c3ccccc3n2)cc1 | 18.1%
c1ccc2[nH]c(CN3CCN(c4ncnc5c4oc4ccccc45)CC3)nc2c1 | -73.1%
C=CCn1c(SCc2c(C(=O)OC)sc(N)c2C(=O)OC)nnc1-c1ccc(Cl)cc1 | -58.1%
Cl.O=c1cc[nH]c2c1ccc1c(=O)cc[nH]c12 | 30.8%
CN(CC(=O)Nc1ccccc1Br)C(=O)c1cc2c(s1)CCCCC2 | -1.74%
Cc1cc(O)c2c(C)c(CC(=O)N3CCN(C(=O)C4COc5ccccc5O4)CC3)c(=O)oc2c1 (centres unmarked) | -28%
C[C@H](OC(=O)N1CCN(C(c2ccccc2)c2ccccc2)CC1)[C@@H]1O[C@@]2(C)CCC[C@H]1O2 | -0.658%
COc1ccc(N2C(=O)c3ccccc3NC2c2ccc(OC)c(COc3ccccn3)c2)cc1 (centres unmarked) | -16.6%
COC(=O)c1ccc(/C=N/OCC(=O)NC2CCCCCCC2)cc1 | -2.92%
Cc1cc(C)cc(N(CC(=O)Nc2c(C)n(C)n(-c3ccccc3)c2=O)S(C)(=O)=O)c1 | 2.85%
CC1CN(S(=O)(=O)c2ccc(C(=O)Nc3ccc(S(=O)(=O)Nc4ncccn4)cc3)cc2)CC(C)O1 (centres unmarked) | 9.93%
CN(C)c1cccc(C(=O)OC(C(=O)Nc2ccc([N+](=O)[O-])cc2Br)c2ccccc2)c1 (centres unmarked) | -10.1%
Cc1nn(C)cc1CNC(=O)c1cc2n(n1)C(C(F)(F)F)CC(c1cccs1)N2 (centres unmarked) | -0.608%
